# Reference: PubChem BioAssay AID488969 (Vanderbilt High Throughput Screening Facility, 2010)
# Whole data set: some 110,000 compounds, median “z-score” near -0.1, cut for the highest 2% near 2. The list shows a part of the results.
# Molecular target: Metabotropic glutamate receptor 8 (Rattus norvegicus) (UniProt P70579)
# Test: rat mGluR8 modulators via GIRK flux, primary screen, cell-based, thallium flux, HTS (AID 488969)
# Settings: HEK293 rat mGluR8, GIRK (G protein-gated inwardly rectifying potassium channel) thallium flux, FluoZin2; at 10 µM; stronger effect = higher value; submaximal glutamate (EC20) added with thallium
# Sequence of UniProt P70579 (P70579 whole entry, looked up): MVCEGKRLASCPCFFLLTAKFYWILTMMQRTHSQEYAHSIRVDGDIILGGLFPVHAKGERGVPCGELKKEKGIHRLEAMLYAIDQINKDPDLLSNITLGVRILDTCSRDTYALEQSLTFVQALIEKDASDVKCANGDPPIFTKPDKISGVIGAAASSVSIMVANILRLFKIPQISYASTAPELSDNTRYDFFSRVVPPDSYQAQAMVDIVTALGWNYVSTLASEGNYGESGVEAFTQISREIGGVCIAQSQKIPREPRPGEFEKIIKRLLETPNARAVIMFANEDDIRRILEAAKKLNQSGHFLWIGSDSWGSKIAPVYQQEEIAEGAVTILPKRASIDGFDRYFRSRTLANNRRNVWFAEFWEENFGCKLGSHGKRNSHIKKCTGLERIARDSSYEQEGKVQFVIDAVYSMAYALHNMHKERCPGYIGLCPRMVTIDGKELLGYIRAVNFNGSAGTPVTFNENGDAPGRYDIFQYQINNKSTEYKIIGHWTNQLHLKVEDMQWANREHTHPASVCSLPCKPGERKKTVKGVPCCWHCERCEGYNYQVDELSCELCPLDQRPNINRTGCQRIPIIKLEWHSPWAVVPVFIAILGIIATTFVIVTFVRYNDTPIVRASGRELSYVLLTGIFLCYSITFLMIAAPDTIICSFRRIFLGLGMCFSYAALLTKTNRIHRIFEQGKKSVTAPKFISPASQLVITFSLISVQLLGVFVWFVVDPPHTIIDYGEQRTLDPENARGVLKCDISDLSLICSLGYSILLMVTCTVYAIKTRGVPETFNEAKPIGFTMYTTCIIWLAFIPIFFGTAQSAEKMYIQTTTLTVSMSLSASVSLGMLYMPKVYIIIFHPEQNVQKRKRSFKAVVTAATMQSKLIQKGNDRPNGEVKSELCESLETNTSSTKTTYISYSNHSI
row,Structure (SMILES),z-score
1,CC(C)CCN1CC(O)=C(c2nc3ccccc3[nH]2)C1=N,-0.12
2,O=C(OCc1ccc(COC(=O)c2ccccn2)cc1)c1ccccn1,0.329
3,Cc1ccc(CCCOC(=O)C[N+]2(C)CCOCC2)cc1,-0.165
4,O=C(Cc1ccc(S(=O)(=O)N2CCCC2)s1)Nc1nc2c(s1)CCCC2,-0.194
5,Cc1[nH]c2ccccc2c1/C=N/Nc1nc(Nc2ccc(F)cc2)nc(N2CCOCC2)n1,-0.0514
6,CCN(CC)S(=O)(=O)c1ccc(NS(=O)(=O)c2ccc(OC)c([N+](=O)[O-])c2)cc1,0.00128
7,C/C(=N/OC(=O)c1ccc(C)cc1)c1ccc(N2C(=O)C3CCCCC3C2=O)cc1 (stereo not drawn),-0.131
8,Nc1[nH]ncc1N=Nc1ccc(Cl)cc1,-0.104
9,O=C(NCc1ccccc1)NC1(C(=O)N2CCOCC2)CCCCC1,0.474
10,COc1cc2c(cc1NC(=O)CSc1cccc[n+]1[O-])oc1ccccc12,-0.555
11,CCn1c(SCC(=O)N2CCCC2)nnc1-c1ccc(S(=O)(=O)N2CCCCCC2)cc1,0.107
12,O=C(Nc1ccncc1)c1ccc(NS(=O)(=O)c2cccc(F)c2)cc1,-0.27
13,O=C(O)CCn1cc(/C=C\C(=O)c2ccc(Cl)cc2)c(-c2cccc(Br)c2)n1,-0.968
14,COc1ccc(C(=O)CSc2nc3nc(C)cc(C)n3n2)cc1OC,-0.0891
15,COC(=O)c1[nH]c2ccc(Br)cc2c1NC(=O)CN1CCCc2ccccc21,-0.247
16,Cc1c(C(=O)NCc2ccco2)oc2ccc(S(=O)(=O)N3CCC4(CC3)OCCO4)cc12,0.341
17,CN(c1ccccc1)S(=O)(=O)c1cccc(NC(=O)CSc2ncn[nH]2)c1,1.2
18,CSc1ncc(F)c(N(CCO)CCO)n1,-0.0744
19,O=C(CCCn1c(=S)[nH]c2cc3c(cc2c1=O)OCO3)N1CCN(c2ccccc2F)CC1,-0.102
20,O=C(NCc1ccccn1)NC1CCCCC1,0.0749
21,O=C1c2ccccc2-c2onc3ccc(NCCCn4ccnc4)c1c23,-0.181
22,O=C(N/N=C/c1ccc(N2CCOCC2)o1)c1cccc(C(F)(F)F)c1,0.388
23,COc1ccc(-c2csc(N(Cc3ccccc3)C(=O)COc3ccc(Cl)cc3)n2)cc1,-0.144

row,Structure (SMILES),z-score
1,O=C(Nc1cccc2ncccc12)c1ccc(F)cc1,-0.316
2,Cc1nn(C)cc1C(C(=O)NC1CCCCC1)N(C(=O)Cc1cccs1)c1ccc(Cl)cc1 (stereo not drawn),-0.0751
3,CCOc1ccc(N2CC(C(=O)Nc3ccc(F)cc3F)CC2=O)cc1 (stereo not drawn),0.151
4,Oc1ccc(Br)cc1C=Nc1ccc2c3c(cccc13)CC2,-0.099
5,CC(NCCO)C(=O)C12CC3CC(CC(C3)C1)C2 (stereo not drawn),0.176
6,O=C(c1cc(Cl)cc(Cl)c1)N1CCOCC1,0.403
7,COC(=O)C(C(=O)OC)c1ccccc1[N+](=O)[O-],-0.0607
8,CCN(c1ccccc1)S(=O)(=O)c1ccc(OCC(=O)Nc2cc(C)on2)cc1,-0.379
9,COc1ccc(NC(=O)c2ccco2)cc1NC(=O)c1c(F)c(F)c(OC)c(F)c1F,0.319
10,CC(=O)NC(C)c1nc2ccccc2n1Cc1ccccc1F (stereo not drawn),-0.0574
11,O=C(c1cc(-c2cccs2)on1)N1CCOCC1,0.486
12,O=C(c1csc(Nc2ccccc2Cl)n1)N1CCCC1,-0.275
13,CC(C(=O)NCCN1CCOCC1)c1ccc([N+](=O)[O-])cc1 (stereo not drawn),-0.211
14,CSC(=Nc1ccccc1)C1=C(O)COC1=O,-0.125
15,C=CCOc1c(Cl)cc(CNc2ccc(N(C)C)cc2)cc1OC,-0.107
16,[O-][n+]1c2c(c3c4non(O)c4ccc31)CCCC2,-2.08
17,Cc1cccc(C(=O)NNC(=O)CN2C(=O)c3ccccc3C2=O)c1,-0.653
18,CCN(CC)C(=O)CSC1=Nc2ccccc2C2=NC(Cc3c[nH]c4ccccc34)C(=O)N12 (stereo not drawn),0.0528
19,COc1cc(C(=O)Oc2ccccc2/C=N/NC(=O)c2ccc(C)c(Cl)c2)cc(OC)c1OC,-0.209
20,COC(=O)c1ccc(C2/C(=C(\O)c3cccc(OC)c3)C(=O)C(=O)N2CCCN2CCOCC2)cc1 (stereo not drawn),-0.351
21,CC(C)(C)C1CCC(=O)C(C2(O)C(=O)Nc3ccccc32)C1 (stereo not drawn),-1.21
22,COc1cccc(-c2cc(C(=O)Nc3cc(C)nn3-c3ccccc3)no2)c1,0.234
23,O=C(COc1ccc(F)cc1Br)N1CCc2ccccc21,-0.0164

row,Structure (SMILES),z-score
1,COc1ccc(-n2c(C)c(C(C)=O)c3cc(O)ccc32)cc1,0.00998
2,CCOc1cc(-c2cc(-c3ccccc3)nc(N)c2C#N)ccc1O,-0.618
3,O=C(CCc1ccc(S(=O)(=O)N2CCOCC2)cc1)Nc1nc(COc2ccccc2)cs1,-0.371
4,CCCC(=O)NC1=C(C#N)C2(CCCCC2)Cc2ccccc21,-0.412
5,O=C(NNC(=O)C1CC1)c1ccc(-c2ccccc2)cc1,-0.112
6,O=C(Cc1ccccc1)N/N=C/c1ccccn1,-0.244
7,C/C(Nc1ccccc1)=C(/C#N)C(N)=O,-0.169
8,O=C(NCc1ccco1)c1ccccc1-c1ccccc1,-0.248
9,CC(C)Oc1ccc(N2C(=O)c3ccccc3C2=O)cc1,-0.397
10,O=C(NNC(=O)C1CCN(Cc2cccc(F)c2)CC1)c1cccc(Cl)c1,-0.147
11,Cc1ccc(OCC(=O)Sc2ccc(C)cc2)cc1,0.238
12,CNC(=O)CSc1nnnn1-c1cc(C)ccc1C,-0.269
13,O=C(Nc1ccccc1)c1cnc[nH]1,-0.382
14,COc1ccc(-c2cc(C(=O)NCc3cccnc3)no2)cc1,-0.138
15,CC(C)C(OC(=O)c1cccs1)C(=O)NCc1cccs1 (stereo not drawn),1.86
16,CCOC(=O)C1(C(F)(F)F)N=C(C(F)(F)F)Nc2ccccc21 (stereo not drawn),-0.0217
17,CC(=O)Nc1ccc(S(=O)(=O)N(C)CCOCc2ccccc2)cc1,0.784
18,COc1ccccc1-n1c(C)nc2cc(C(=O)NCc3ccc4c(c3)OCO4)ccc21,-0.332
19,O=S(=O)(/N=C(\Sc1ccccc1)c1ccccc1)c1ccc(Cl)cc1,-0.0735
20,CCn1nnc(NC(=O)c2sc3ccccc3c2Cl)n1,0.967
21,COc1ccc(CCNC(=O)COc2ccc(S(=O)(=O)NCC(C)C)cc2Cl)cc1OC,-0.464
22,O=C(c1cccc(Br)c1)N1CCCC1,-0.319
23,Cc1ccc(C(C(=O)NC2CCCC2)N(Cc2cccnc2)C(=O)c2snc(C(N)=O)c2N)o1 (stereo not drawn),-0.175

row,Structure (SMILES),z-score
1,CC1CC(=O)N(C)c2ccc([N+](=O)[O-])cc2N1 (stereo not drawn),-0.291
2,Cc1nn(C/C(C#N)=N\O)c(C)[n+]1N,-0.018
3,O=C(COc1ccc2ccccc2c1)Nc1cccc(C(=O)Nc2ccccc2C(=O)O)c1,-0.933
4,COc1ccccc1N1CCN(C(=O)c2ccc(CSc3ccccc3)cc2)CC1,0.0362
5,CN(Cc1ccccc1)C(=O)C1CCCN(Cc2ccc(Cl)cc2)C1 (stereo not drawn),-0.229
6,O=C(Nc1cc(C(F)(F)F)ccc1F)C1CCCC1,-0.142
7,O=C1NC(=Nc2ccccc2)S/C1=C\c1cccn1-c1ccccc1,-0.24
8,O=S(=O)(c1ccccc1)c1cnn2c(C(F)(F)F)cc(-c3ccccc3)nc12,-0.0328
9,CCCCNC(=O)CS(=O)Cc1nc(-c2cccc(Cl)c2)oc1C (stereo not drawn),-0.421
10,C=CCn1cnc2scc(-c3ccccc3)c2c1=O,0.17
11,Cn1c(NC(=O)C2CC2)cc(=O)n(C)c1=O,-0.336
12,CC(NC(=O)c1ccccc1F)C(=O)O (stereo not drawn),0.352
13,Cc1cc(C)n(C(=O)COc2c(C)cccc2C)n1,0.876
14,CCOc1ccc(NC(=O)Nc2nnc(CC)s2)cc1,-0.713
15,CCC(C)NC(=O)C1CCN(c2nc(OC)nc(OC)n2)CC1 (stereo not drawn),0.12
16,NNc1nc2c(Cl)cccc2s1,-0.321
17,Cc1nc2c(C(=O)NCc3ccc(F)cc3)c[nH]n2c(=O)c1Cl,-0.807
18,Cc1cccc(OCCOC(=O)Nc2ccccc2)c1,-0.107
19,Nc1cc2c(cc1C(=O)c1ccccc1)OCCO2,0.199
20,CCOC(=O)c1sc(NC(=O)CSc2nc3c(cc2C#N)CCCCC3)c(C#N)c1C,-0.113
21,CC(=O)Nc1ccc(S(=O)(=O)NNC(=O)COc2ccc(C(C)(C)C)cc2)cc1,-0.0776
22,CCOC(=O)Cc1csc(NS(=O)(=O)c2ccc(F)cc2)n1,0.0276
23,Cc1nn(-c2ccccc2)c2ncc(C(=O)c3cc(Cl)ccc3O)cc12,-1.54

row,Structure (SMILES),z-score
1,CCN(CC)c1ccc(/C=N/Nc2nc(C)cc(=O)[nH]2)cc1,-0.103
2,CCN(CC)S(=O)(=O)c1ccc(-c2nnc(SCC(=O)N3c4ccccc4CC3C)n2CC)cc1 (stereo not drawn),-0.133
3,CCOC(=O)C1=C(C)NC(SCC(N)=O)=C(C#N)C1c1cccs1 (stereo not drawn),-0.537
4,CCc1cccc2c(/C=N/NC(=O)c3cccc(S(=O)(=O)Nc4ccccc4Cl)c3)c[nH]c12,-0.57
5,CCOC(=O)C1CCCc2c1[nH]c1c(C(=O)O)cccc21 (stereo not drawn),0.713
6,Cc1ccc(Sc2ccc([N+](=O)[O-])cc2[N+](=O)[O-])nc1,-0.158
7,CC(C)(C)NC(=O)CN(Cc1cccs1)C(=O)C1COc2ccccc2O1 (stereo not drawn),-0.32
8,COc1ccc(-c2cc(C(F)(F)F)nc(-n3ccnc3C)n2)cc1,-0.187
9,COc1ccc(CCNC(=S)Nc2cccc(C)c2C)cc1,0.194
10,COc1ccc(CC(=O)N2CCc3ccccc32)cc1,0.0191
11,Cc1ccc(NC(=O)c2cn(-c3cccc(C)n3)cn2)cc1,0.00633
12,COc1ccc(NC(=O)C(c2ccc(C)cc2)N(C)C(=O)CC2NC(=O)NC2=O)cc1 (stereo not drawn),-0.6
13,COc1ccc(-n2nnnc2SCc2nc3ccccc3s2)cc1,-0.0706
14,COc1ccc(-c2cnc(N)n2CC2CCCO2)cc1 (stereo not drawn),-0.256
15,Cn1c(O)c(C=NCC2CCNCC2)c(=O)n(C)c1=O,0.695
16,COc1ccc(NC(=O)CSc2nnc(C3CC3)n2-c2ccccc2)cc1,0.316
17,Cc1ccc(OCC(=O)N/N=C\c2c(C)n(C)c3ccccc23)c([N+](=O)[O-])c1,-0.392
18,O=C(COC(=O)CCC(=O)c1cccs1)Nc1cc(S(=O)(=O)N2CCOCC2)ccc1Cl,-0.416
19,CCOC(=O)N1CCN(S(=O)(=O)c2ccc(OCC(=O)OC)c(C)c2)CC1,-0.157
20,CCN(CC)c1nc(C)c(C(C)=O)cc1C#N,-0.31
21,CC(NC(=O)c1cccnc1)C(c1cccs1)N1CCN(C)CC1 (stereo not drawn),-0.0346
